Measurements: publication PMC6919601, “Identification of Plasmodium dipeptidyl aminopeptidase allosteric inhibitors by high throughput screening” (PLoS ONE, 2019)
The campaign covered roughly 110,000 compounds. About 230 (0.21%) showed an effect of 50% or more. The list shows a part of the results.

Molecular target: DPAP1 (Plasmodium falciparum, UniProt Q8IIJ9)
Test: primary screen, percent inhibition; read by cleavage of a fluorogenic dipeptide substrate; higher = more effect of the substance
Parameters: species or system P. falciparum D10 trophozoite lysates; single well
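Also: 30 min substrate incubation versus DMSO and 10 µM JCP410 controls.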

Sequence of DPAP1 (Q8IIJ9 whole entry, looked up): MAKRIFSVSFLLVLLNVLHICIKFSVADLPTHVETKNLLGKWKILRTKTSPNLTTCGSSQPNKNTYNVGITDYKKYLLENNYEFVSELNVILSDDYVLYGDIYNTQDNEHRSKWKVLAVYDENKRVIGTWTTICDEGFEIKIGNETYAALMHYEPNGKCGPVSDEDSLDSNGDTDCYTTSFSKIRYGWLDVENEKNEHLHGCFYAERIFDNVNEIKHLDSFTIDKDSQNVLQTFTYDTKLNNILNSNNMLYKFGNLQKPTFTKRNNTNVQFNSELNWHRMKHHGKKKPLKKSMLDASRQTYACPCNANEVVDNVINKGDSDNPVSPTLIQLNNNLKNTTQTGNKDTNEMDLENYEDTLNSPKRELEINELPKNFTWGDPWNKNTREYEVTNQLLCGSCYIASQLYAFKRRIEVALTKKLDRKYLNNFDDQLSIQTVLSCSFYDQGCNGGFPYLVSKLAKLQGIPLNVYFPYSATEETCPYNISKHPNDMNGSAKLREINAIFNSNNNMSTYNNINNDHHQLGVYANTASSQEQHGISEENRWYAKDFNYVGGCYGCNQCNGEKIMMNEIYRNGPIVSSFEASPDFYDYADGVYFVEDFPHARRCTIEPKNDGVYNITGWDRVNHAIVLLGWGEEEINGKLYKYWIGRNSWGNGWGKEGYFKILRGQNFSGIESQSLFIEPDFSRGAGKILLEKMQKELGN

Compared with `CCC(Oc1ccccc1)C(=O)Nc1ccc(C(N)=O)cc1` (centres unmarked), `CCOc1ccc(NC(=O)c2cccnc2Cl)cc1` is higher in “% Inhibition @ 10 uM” value: -3.24% for the first, 5.73% for the second.

Compared with `Cc1c(C(=O)O)nn(-c2ccc(F)cc2)c(=O)c1C#N`, `O=C(c1ccc(F)cc1)N1CCN(c2ccc([N+](=O)[O-])cc2)CC1` is higher in “% Inhibition @ 10 uM” value: -0.736% for the first, 1.48% for the second.

Going from `CC1=C(C(=O)Nc2cccc(C)n2)C(c2ccc(Cl)cc2)C2=C(O)CC(C)(C)CC2=N1` (centres unmarked) to `COc1ccc(CNC(=O)c2cc(-c3ccc(Cl)cc3)on2)cc1`, the “% Inhibition @ 10 uM” value falls from 5.89% to -5.52%.

First: COc1cc(NC(=O)C2CCN(C(=O)c3cnn(-c4ccccc4)c3-n3cccc3)CC2)ncn1
Second: O=C(Nc1cccc(Cl)c1)N1CCC(Cc2ccccc2)CC1
The “% Inhibition @ 10 uM” value of the first is lower: -3.35% for the first, 0.727% for the second.

First: CC(C)(C)c1ccccc1OCCCN1CCOCC1
Second: Cc1cccc(Cn2c(CN3CCOCC3)nc3c2c(=O)[nH]c(=O)n3C)c1
The “% Inhibition @ 10 uM” value of the first is higher: 2.26% for the first, -4.69% for the second.

Going from `O=C(O)c1ccc2c(c1)C1C=CCC1C(c1ccccc1Cl)N2` (centres unmarked) to `O=C(O)c1ccc(-c2nc(S)c3c(n2)Oc2ccccc2C3)cc1`, the “% Inhibition @ 10 uM” value rises from 7.98% to 12.3%.

Going from `Cc1cccc(-c2nnc(-c3cccc(C)c3)o2)c1` to `O=C(O)c1cc(-c2cccc(Br)c2)nc2ccccc12`, the “% Inhibition @ 10 uM” value falls from 3.03% to -1.54%.

First: O=C(Nc1nccs1)OCC1c2ccccc2-c2ccccc21
Second: CCOc1ccccc1C(=O)Nc1ccccc1Cl
The “% Inhibition @ 10 uM” value of the first is lower: -9.91% for the first, -2.44% for the second.

Compared with `Cc1ccccc1OCC(O)Cn1c(NCCO)nc2c1c(=O)[nH]c(=O)n2C` (centres unmarked), `COc1ccc(CNCc2c(C(=O)O)n(Cc3ccccc3C)c3cc(C)ccc23)c(OC)c1` is lower in “% Inhibition @ 10 uM” value: 1.67% for the first, 1.06% for the second.

Going from `Cc1ccc(S(=O)(=O)c2nnn3c2nc(NCCC2=CCCCC2)c2ccccc23)cc1` to `Cc1ccc(S(=O)(=O)/N=C(/NCc2ccccc2)c2ccc(F)cc2)cc1`, the “% Inhibition @ 10 uM” value rises from -8.09% to 3.87%.

Compared with `CCOc1ccc(CNC(=O)c2cc3c(=O)n(Cc4cccnc4)ccc3nc2C)cc1`, `COc1ccc(CCNC(=O)Cn2c(SCc3ccccc3F)nc3cccnc32)cc1OC` is higher in “% Inhibition @ 10 uM” value: -4.55% for the first, 0.693% for the second.

Going from `COc1ccc(-c2cc(OC)c3ccccc3n2)cc1` to `COc1ccc(-c2cc(-c3ccc(C(C)C)cc3)c(C#N)c(N)n2)cc1`, the “% Inhibition @ 10 uM” value rises from -1.36% to 3.39%.

Compared with `CCCNC(=O)/C(=C/c1cn(CC)c2ccccc12)NC(=O)c1ccccc1`, `Cc1onc(-c2c(Cl)cccc2Cl)c1C(=O)NCCc1ccccc1` is lower in “% Inhibition @ 10 uM” value: -1.74% for the first, -7.5% for the second.

Going from `COc1cc(C=C(C#N)C#N)ccc1OCc1cccc2ccccc12` to `COc1ccc(/C=C2\C(=O)NC(=S)N(c3ccccc3)C2=O)cc1Br`, the “% Inhibition @ 10 uM” value falls from -4.48% to -5.2%.

Compared with `CC1CCCCN1CCCNC(=O)CNC(=S)N1CC2CC(C1)c1cccc(=O)n1C2` (centres unmarked), `COc1ccccc1/C=C/CN1C[C@@H]2C[C@H](C1)c1cccc(=O)n1C2` is higher in “% Inhibition @ 10 uM” value: -5.92% for the first, -2.48% for the second.

Going from `CC1=C(C(=O)OCc2ccc3c(c2)OCO3)C(c2cccc(Cl)c2Cl)CC(=O)N1` (centres unmarked) to `O=C(NCc1ccc2c(c1)OCO2)c1ccc(S(=O)(=O)N2CCCCCC2)cc1`, the “% Inhibition @ 10 uM” value rises from -2.24% to 12.7%.

First: Cc1ccc(NC(=O)/C=C/C(=O)O)cc1F
Second: CCOc1ccc(C(=O)/C=C(\O)C(=O)OC)cc1
The “% Inhibition @ 10 uM” value of the first is higher: -3.03% for the first, -5.14% for the second.

First: CCCN1CCC(NCc2cccc(C(F)(F)F)c2)CC1
Second: COc1cccc(CNC(=O)CC/N=c2/c(N3CCCC3)c(O)c2=O)c1
The “% Inhibition @ 10 uM” value of the first is higher: 2.7% for the first, -11.3% for the second.

Compared with `N#Cc1c(S)nc2c(c1/C=C/c1ccccc1)CCC2`, `Cc1c(-c2ccccc2)nc(Cl)c(C#N)c1C#N` is lower in “% Inhibition @ 10 uM” value: 17.3% for the first, -4.24% for the second.

First: CN(C)CCCOC(=O)/C=C/c1ccccc1
Second: Cc1noc(C)c1S(=O)(=O)N(C)Cc1ccccc1
The “% Inhibition @ 10 uM” value of the first is higher: 3.01% for the first, -2.12% for the second.

First: CC(NC(=O)c1cccnc1)c1cc2c(cc1Cl)OCCCO2 (centres unmarked)
Second: CCC(C)NC(=O)c1cc(-c2ccc(Cl)cc2)on1 (centres unmarked)
The “% Inhibition @ 10 uM” value of the first is lower: -3.09% for the first, -0.601% for the second.

Compared with `Cc1c2cnn(CC(=O)N3CCC(N4CCCCC4)CC3)c(=O)c2c(C)n1Cc1ccc(F)cc1`, `Cc1nnc(N2CCN(C(=O)NCC3CCCO3)CC2)c2nn(-c3ccc(Cl)cc3)c(C)c12` (centres unmarked) is higher in “% Inhibition @ 10 uM” value: 1.22% for the first, 4.65% for the second.

First: Cc1cccc(/C=C2/SC(=O)N(Cc3ccccc3C#N)C2=O)n1
Second: O=C1OC(c2ccccc2F)=N/C1=C\c1ccccc1Cl
The “% Inhibition @ 10 uM” value of the first is lower: -5.9% for the first, -2.96% for the second.

Going from `CCOC(=O)C(C)Oc1cc2occ(-c3nc(C)cs3)c(=O)c2cc1CC` (centres unmarked) to `CCOC(=O)c1c(NC(=O)c2cc3ccccc3o2)sc(C(C)=O)c1C`, the “% Inhibition @ 10 uM” value falls from 0.00784% to -4.13%.

Going from `Cc1ccc(C2=NN(CCC(=O)NCCN3CCOCC3)C(=O)CC2)cc1` to `Cc1ccc(CNC(=O)C2CCN(c3nn4c(=O)cc(C)nc4s3)CC2)cc1`, the “% Inhibition @ 10 uM” value rises from 3.24% to 4.55%.

First: Cc1cc(C)n2nc(S(=O)(=O)Cc3ccc(Cl)cc3)nc2n1
Second: Oc1nnc(SCc2ccc(Cl)cc2)c(O)n1
The “% Inhibition @ 10 uM” value of the first is lower: 0.727% for the first, 0.997% for the second.

First: ClC(Cl)(Cl)c1nc(C(Cl)(Cl)Cl)nc(C(Cl)(Cl)Cl)n1
Second: Nc1nc(Cl)nc(Nc2ccccc2SCCC(F)(F)F)n1
The “% Inhibition @ 10 uM” value of the first is higher: 21.5% for the first, -2.77% for the second.

Going from `Cc1cc(C)cc(Oc2nc3c(C)cccn3c(=O)c2/C=C(\C#N)C(=O)N2CCCCC2)c1` to `Cc1nc(-c2ccccc2)cc(N2CCCCC2)n1`, the “% Inhibition @ 10 uM” value falls from 3.63% to 0.605%.

First: CCc1cc2c(cc3c(=O)n(CC(=O)NC4CCCCCC4)nc(CC)n32)s1
Second: COC(=O)c1ccnc(C2CCCCC2=O)c1 (centres unmarked)
The “% Inhibition @ 10 uM” value of the first is higher: 0.0198% for the first, -3.75% for the second.

Compared with `COc1cc(Cl)cc2c1Sc1ccccc1CC2N1CCNCC1` (centres unmarked), `COc1ccccc1-c1cc(C(=O)N2CCN(C)CC2)no1` is lower in “% Inhibition @ 10 uM” value: 4.03% for the first, 3.89% for the second.

Going from `CCNCC(=O)N1c2ccccc2CCc2ccc(NC(=O)OC)cc21` to `CC(=O)Nc1cccc(Oc2ccc3c(c2)C(=O)N(c2ccccc2C)C3=O)c1`, the “% Inhibition @ 10 uM” value falls from 4.12% to -7.33%.

Compared with `Cc1ccc(CCNc2cnn(C34C[C@@H]5C[C@@H](CC(CC(=O)O)(C5)C3)C4)c(=O)c2Cl)cc1`, `Cc1ccc(C2=NC3(CCC(C)CC3)NC2=S)cc1` (centres unmarked) is higher in “% Inhibition @ 10 uM” value: 7.64% for the first, 10.9% for the second.

Going from `CCOc1ccc(S(=O)(=O)N2CCN(c3cc(Cl)ccc3Cl)CC2)cc1` to `O=C1N/C(=C\c2ccc(O)c(Br)c2)C(=O)N1Cc1ccc(Cl)cc1`, the “% Inhibition @ 10 uM” value rises from 1.29% to 6.89%.

Going from `N#CC1(C#N)[C@H](C(N)=O)[C@H]1c1ccccc1Cl` to `Cc1ccccc1N(CC(=O)Nc1ccccc1Cl)S(C)(=O)=O`, the “% Inhibition @ 10 uM” value falls from -0.197% to -8.4%.

Going from `Nc1nc(-c2cccc([N+](=O)[O-])c2)cs1` to `Cc1sc2ccc3ccsc3c2[n+]1C`, the “% Inhibition @ 10 uM” value falls from 2.4% to -4.51%.

Compared with `CC(C)C[C@H](NC(=O)OCc1c(Cl)cccc1Cl)C(=O)NCC#N`, `CCCC[C@H](NC(=O)[C@H](CC(C)C)NC(C)=O)C(=O)c1nc2ccccc2o1` is lower in “% Inhibition @ 10 uM” value: 1.71% for the first, -0.214% for the second.

Compared with `CCCCN1C(C)=NC(C(F)(F)F)(C(F)(F)F)C2=C1CC(C)(C)CC2=O`, `CCCS(=O)(=O)c1nc(S(=O)(=O)c2ccc(C)cc2)c(NCCCOC)s1` is lower in “% Inhibition @ 10 uM” value: 0.221% for the first, -0.522% for the second.

First: CCOc1ccc(-c2nonc2NC(=O)c2oc3ccc(F)cc3c2C)cc1OCC
Second: Cc1ccc(NS(=O)(=O)c2cc(-c3cc(C)no3)ccc2C)nc1
The “% Inhibition @ 10 uM” value of the first is higher: 1.9% for the first, -9.3% for the second.

Going from `Cn1nc(-c2ccc(C(=O)N3CCN(Cc4ccccc4)CC3)cc2)c2ccccc2c1=O` to `O=C(c1nn2c(C(F)(F)F)cc(-c3cccs3)nc2c1Cl)N1CCN(c2ccccc2)CC1`, the “% Inhibition @ 10 uM” value rises from -11.1% to -3.77%.

Going from `CCC(=O)Nc1ccccc1-n1cccc1` to `O=S(=O)(Nc1c(Br)cc(Br)c2cccnc12)c1ccccc1`, the “% Inhibition @ 10 uM” value rises from -3.23% to 3.12%.

First: Cc1sc(NC(=O)c2ccco2)c(C(c2cccnc2)N2CCN(c3ccccn3)CC2)c1C (centres unmarked)
Second: O=C(CNS(=O)(=O)c1ccc(Br)s1)N1CCC(Cc2ccccc2)CC1
The “% Inhibition @ 10 uM” value of the first is higher: 38.8% for the first, -0.601% for the second.

First: CCN(CC)CCN(C)Cc1ccc(Cl)cc1
Second: CCCCNC(=O)CN(c1ccc(OC)c(Cl)c1)S(C)(=O)=O
The “% Inhibition @ 10 uM” value of the first is lower: -0.603% for the first, 4.75% for the second.

Compared with `N#CCNC(=O)[C@H](CC1CCCCC1)NC(=O)C1CCCCC1`, `CCC1(O)C(=O)N(C2CCCCC2)S(=O)(=O)N(C2CCCCC2)C1=O` is lower in “% Inhibition @ 10 uM” value: -3.49% for the first, -6.27% for the second.

First: CCS(=O)(=O)c1c(S(=O)(=O)CC)c2cc(C(C)(C)C)ccn2c1C(=O)c1ccc(C)cc1
Second: Cc1noc(NS(=O)(=O)c2ccc(NC(=O)CS(=O)(=O)c3ccccc3)cc2)c1C
The “% Inhibition @ 10 uM” value of the first is higher: -1.47% for the first, -5.1% for the second.

First: Cc1cc(C(=O)NCCCN2CCN(C)CC2)c2c(C)nn(-c3cccc(Cl)c3C)c2n1
Second: CCC1CCCCN1CCCNC(=O)CSc1nc2nc(C)c(Cc3ccccc3)c(C)n2n1 (centres unmarked)
The “% Inhibition @ 10 uM” value of the first is higher: -3% for the first, -3.48% for the second.

First: CCC1CCc2c(sc(NC(=O)c3cccc(Br)c3)c2C(N)=O)C1 (centres unmarked)
Second: O=C(CSc1ncnc2sc3c(c12)CCC3)Nc1ccc(F)cc1
The “% Inhibition @ 10 uM” value of the first is lower: -2.63% for the first, 0.528% for the second.

First: O=C(N/C(=C/c1cccs1)C(=O)N1CCOCC1)c1cccs1
Second: CC1=NN(C(=O)c2cc(-c3ccc(C)s3)nc3ccccc23)C(O)(C(F)F)C1 (centres unmarked)
The “% Inhibition @ 10 uM” value of the first is higher: -0.996% for the first, -1.88% for the second.

Compared with `CC(=O)OCC1CC2=C(CCCC2(C)C)CC1C` (centres unmarked), `COCCNC(=O)c1cc(-n2cnnc2)ccc1Cl` is lower in “% Inhibition @ 10 uM” value: 33.1% for the first, -10% for the second.

First: CC1=CC2=NC(=O)/C(=C\c3cc(C)n(-c4cc(C)ccc4C)c3C)C(=N)N2O1
Second: Cc1ccc(-c2[nH]nc3c2C(c2ccc(O)c(O)c2)C(C#N)=C(N)O3)cc1 (centres unmarked)
The “% Inhibition @ 10 uM” value of the first is lower: -5.1% for the first, 0.777% for the second.
